Laboratory results from the supplement of paper PMC11417369.
± gives the standard deviation of the averaged measurements. The list shows a part of the results.

Tested on: PfAP2-G AP2 domain (GST-tagged)
Test: gcPBM binding intensity (ln(normalized median fluorescence intensity)); higher = stronger DNA binding
In short: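 Binding of GST-tagged P. falciparum DNA-binding domains, expressed in E. coli and used at about 25 μg on average, was carried out for 1 h in 1× PBS containing 1% milk, 0.2 mg/ml BSA, 0.5% salmon testes DNA and 0.03% Triton X-100. The target was an Agilent 4 × 180k array of primer-extended double-stranded 36-bp intergenic genomic probes plus negative controls, read with Alexa488 anti-GST antibody at 488 nm. Binding intensity is the highest Masliner-normalised natural-log median intensity across replicate spots of either probe orientation.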

Sequence	gcPBM binding intensity (ln)
ATATATATATATATATGTACATATGTATGTGTTTGT [XGTACX_site397]	11 ± 0.59
TATACTCATTTTTATACACACTTGTTTTATAAAACG [CACACA_site4561]	10.2 ± 0.11
TTTTTTCTAATATCTTTGCCTTTTTCTTTATTTATT [CACACA_negctrl_site1053]	9.6 ± 0.26
TATATATTTTATTATTGTACGAATTATTTATTTTAC [XGTACX_site8105]	11.1 ± 0.71
TACATCATCTATAAGGTGCATTTTAGTTCTATTAAA	10.2 ± 0.47
ATGGACATTTTATAAATCACAATGGATATTTTATAA [CACACA_negctrl_site1830]	10.2 ± 0.32
TATTGAAACCCACACGAACACACGTATTTCATAAAC [CACACA_site251]	10.4 ± 0.32
TATAAAAAGCATAACACACACATGTCAATATAAATA [CACACA_site6648]	10 ± 0.071
TACTTTTATATAGAAAGTACATACAATTCATAGAAT [XGTACX_site2182]	11.1 ± 0.72
TTTTTTTTTTTTTTGTGTACATATAATGCACATTAT [XGTACX_site6505]	11.4 ± 1
AAAAAATAAATAAATACACACAAATATATATATATA [CACACA_site2543]	10.3 ± 0.59
TTTTGTAGATATGACTGTACATATTTTATACATAAC [XGTACX_site971]	11.3 ± 0.85
TGGTAATCCACATACACACACACATACACATATATA [CACACA_site2727]	10.4 ± 0.35
AAGAAAAAAAAAATTACACACTGCGCAGATACACAA [CACACA_site1289]	10.19 ± 0.049
TAATATGTATATAAAAGTACAGACGATTATAATTAT [XGTACX_site173]	11.3 ± 0.78
ATATATATATGTAAGAGTACACAAAAATATGTATGT [XGTACX_site4335]	11.6 ± 0.96
AAGACAACATAAATATGTACATATATTTATTATTTT [XGTACX_site1792]	11.4 ± 0.95
AGAATGGATTAGCTAGCACACACAAAAAAAAAAAAA [CACACA_site8995]	10.1 ± 0.62
ACTAATATTTTATAAAGTACAAATTAATAAAATTCA [XGTACX_site5817]	11.1 ± 0.73
TATATATATATATTGACACACATGTATTTCAATATT [CACACA_site2832]	10.1 ± 0.21
CACATACCTATATACACACACAAAATAATAAAATAA [CACACA_site7150]	10.2 ± 0.23
CTTATATATTGCCCTTCACACACACCCATATATATA [CACACA_site8795]	10.4 ± 0.2
AAGTATGGAAAGGAATATAAATTAATACTTTCATTG [XGTACX_negctrl_site131]	9.88 ± 0.014

Sequence	gcPBM binding intensity (ln)
AGAAATTTACAAATACGTACACACATATATATATAT [XGTACX_site3141]	11.9 ± 1.4
GAAGATATGTAAAATTGTACATATTATTTTATTTTA [XGTACX_site5302]	10.8 ± 0.47
AATAAAAATATATCCACACACATATATATATATGTA [CACACA_site576]	9.85 ± 0.099
ATATGAATATATATATGTACTAATTAGTAGTTTACG [XGTACX_site6273]	11.1 ± 0.7
TATAAGACATGATATATACACACCTTGTTTTAATTT [CACACA_site2266]	9.75 ± 0.16
TTTTTTTTTTCATTCACACAAAAAAAAAAAATTTAT [CACACA_site5921]	9.97 ± 0.24
TCATAACAACTTTGTGTGCACATAAAACATGTATAT	10.6 ± 0.33
AAAGGTTCATAAAAATGTACATAATTATTTACATGT [XGTACX_site2722]	11 ± 0.49
CAAATCATATATAGCACACAAATTCTTTATTATTAT [CACACA_site2815]	9.97 ± 0.16
TTTTACACTTTTTTTTGTACACACTAAAAAGATTAA [XGTACX_site8407]	11.4 ± 0.89
AAAATATATAATATTTGTACATATTGATGGCAACAG [XGTACX_site6454]	10.9 ± 0.49
CTGATCCACATTTATACACACCTCGGTTTGTAGAGA [CACACA_site4393]	9.96
TACTATTTAAAATATGAACACACATTATTTGTTTTA [CACACA_site8870]	9.865 ± 0.021
TAAATTAAAAGACACACACACAAAAAAAAAAAAAAA [CACACA_site7131]	9.94 ± 0.49
GGAAACTAAAGGAATAAAACTATGGAAATTAATTAA [CACACA_negctrl_site1647]	10.025 ± 0.007
CACAAAAATAAACACACACACATATATATTTATTAT [CACACA_site5923]	9.85 ± 0.14
ATTCAAAATTATAGGTGTACGTATTTTTTTTTTTTT [XGTACX_site7177]	11.6 ± 0.86
ATAATTTCATAATACGTGCACATAATATATAAAAAA	10.6 ± 0.53
AGATGATATAATGGCACACAAATATTTTATTATAAA [CACACA_site3553]	10.14 ± 0.092
TAAATTTATAAATCACGTACATATTTATTTATATTT [XGTACX_site4532]	11.2 ± 0.7
TAAAATAATAAAACAACACACAAATAGTTAAAATAG [CACACA_site1680]	9.99 ± 0.014
ATTGACGTCATATAAACATGCACATTTTGGATGTTT [TGCATGCA_site985]	10.01 ± 0.042
CATATAATAAAAAATGTACACACATAAGAAAATTTA [CACACA_site8943]	11.3 ± 0.67

Sequence	gcPBM binding intensity (ln)
TATGTGTATAATAAAAGTACATATATTATTATATAA [XGTACX_site8556]	11.3 ± 0.9
GTCATATTATTATTACGTACTTAAATATATAATATA [XGTACX_site3405]	11.5 ± 1.1
AAAAGAAAAAAAAGTACACACATGTATATTAATCGT [CACACA_site2528]	11.6 ± 1.1
TGTTAACTTAAAAAAATACCTACGGAAAAATCACAA [TGCATGCA_negctrl_site433]	9.955 ± 0.064
TAAATATAATAAGAACAAACAAAATAGTACAATATA [TGCATGCA_negctrl_site364]	11.4 ± 0.65
TTTTTTTTAAATTGTGGTACACAAATTCATATATAT [XGTACX_site8944]	11.5 ± 1.1
TACAGATACGGACACACACACACACCCAGACAAAAA [CACACA_site4432]	11.3 ± 0.92
ATATTAAAATATAATCGTACAATTAAATTTTTTTTT [XGTACX_site2739]	11 ± 0.57
TACAAAATACAAAAATGTACATAAAAATTTATAAAA [XGTACX_site6861]	11.2 ± 0.62
TAAAATAAGTTAAAAAGTACATAATTATAATAAATA [XGTACX_site8108]	11.1 ± 0.67
CACAAAAATAAATATAAACACACAATAAATAAATAA [CACACA_site8197]	9.965 ± 0.064
ATATATATATATATTCCACACACACCCAAAAAAAAA [CACACA_site9215]	10.4 ± 0.44
TTTGTTTTTATTTACACATGCAAAAAAAAAAAAAAA [TGCATGCA_site655]	9.98 ± 0.58
TTATAATAGTTAATATGTACATATTTAATAAATAAT [XGTACX_site3183]	11.2 ± 0.79
CCCCCCCACGAACACACACACATACATACCACATAT [CACACA_site7149]	12 ± 1
AATAAATAAAAAATTACACACATATTTATAAATATA [CACACA_site7584]	9.81 ± 0.028
AAGATAAACTTTTTTAATTAATTTAATTTTTTTTTT [GTGCAC_negctrl_site386]	9.645 ± 0.035
TTATTTATTTTTTATACACACAATTATCTTTTTAAG [CACACA_site6162]	9.9 ± 0.11
ATATTTATTTAATGAACACACGATATATTATTTTAT [CACACA_site1602]	10.01 ± 0.035
TCATATAATCAAATATGTACATATTTTCAATTGAAT [XGTACX_site6831]	11.3 ± 0.62
ATATAATTTGATGGTTAACACACATATATATTATAT [CACACA_site8775]	9.945 ± 0.007
CACTTCATAAAAATTGCACACATATAATAATGTACA [CACACA_site8692]	10.6 ± 0.36
ACAATGAAATATTCATGTACATATAAATAATAGTGT [XGTACX_site3762]	11.3 ± 0.65

Sequence	gcPBM binding intensity (ln)
ATATAGAATATATTAACATGCAATAAGTAAAGGGGG [TGCATGCA_site1022]	11 ± 0.5
AAAATGATAATACCAAGTACACATATGAAAAATACA [XGTACX_site6763]	11.3 ± 0.83
ATATAAATATTAAATACACACATTTTTGATTAGGTT [CACACA_site7461]	9.915 ± 0.078
TAAATCATTTATTAAGTGCAATATTCTTTTTGAGAT	9.73 ± 0.028
TGTTTTCCCTTTAGTGTGCACGTATTTCTATTAACA [GTGCAC_site9847]	10.7 ± 0.46
TAAAAACATTTAAATTGTACGGAAATAAAAATTTTT [XGTACX_site8225]	10.9 ± 0.57
GACCCATTATTTTATTGTACTTTTATTATAACGTGA [XGTACX_site156]	11.4 ± 0.81
AAATGAATAATGATATACAAACAAATCATGTGTTAA [XGTACX_negctrl_site150]	9.51 ± 0.39
ATACATTCAAAATATACACACATATATATATAATAT [CACACA_site950]	9.95
TTTCCCCCATATAATGAACACACACCCTCCTCATAA [CACACA_site8110]	11.2 ± 0.65
TATGTTAAAAAAAAATGTACATATGTTTTTGTTAAA [XGTACX_site4754]	11.2 ± 0.86
AAAATAAAAATAACAACACACATATACTATAATATT [CACACA_site2769]	9.82 ± 0.057
ATGTGTGTATACATCAATTATATATATATTATGTAT [GTGCAC_negctrl_site720]	10.2 ± 0.24
ATAAATATATGAAGTTGTACAAATAATTAACATTAT [XGTACX_site5740]	11.2 ± 0.64
AAATTAAATAAATTTACACACTAAAAATTACATATA [CACACA_site1054]	9.93 ± 0.16
TTTATTATTATATTATTTTAATTTTTCTTTAGTACA [GTGCAC_negctrl_site392]	10.29 ± 0.099
CATTTCATTTCTTAATGTACTTTATTCCACCACATA [XGTACX_site5943]	11.3 ± 0.86
ATTTTTTTTAATTTGTACAAATTTTGTTCACAATTT [CACACA_negctrl_site1301]	10.8 ± 0.4
TACCATGTTCAAATTACACACATATAATCTAATATA [CACACA_site2008]	9.805 ± 0.021
TAATATCTACATATATGTACATATATATATATATAT [XGTACX_site7979]	11.1 ± 0.65
